Results reported in the supplement of paper PMC4604168 (melanoma cell lines).
The list shows a part of the results. Most values come without repeats; read them as rough.

Assays:
Assay in all cases: cell count relative to DMSO control; melanoma cells; higher = more viable cells
Conditions in all cases: library dose: low library concentration; 72 h
[1] = system: MZ2-MEL
[2] = system: MeWo
[3] = system: RPMI7951
[4] = system: RVH-421
[5] = system: SkMel28
[6] = system: SkMel2
[7] = system: SkMel30
[8] = system: SkMel5
[9] = system: UACC257
[10] = system: UACC62
[11] = system: WM115
[12] = system: WM1716
[13] = system: WM1745
[14] = system: WM3526
[15] = system: WM3619
[16] = system: WM451Lu
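Note: cell number obtained by counting DAPI-stained nuclei in high-throughput microscope images with image analysis software, screen run in 1,536-well plates.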

SMILES	cell count [1] [%]	cell count [2] [%]	cell count [3] [%]	cell count [4] [%]	cell count [5] [%]	cell count [6] [%]	cell count [7] [%]	cell count [8] [%]	cell count [9] [%]	cell count [10] [%]	cell count [11] [%]	cell count [12] [%]	cell count [13] [%]	cell count [14] [%]	cell count [15] [%]	cell count [16] [%]
CC(C)(C)c1cnc(CSc2cnc(NC(=O)C3CCNCC3)s2)o1 + NC(=O)Nc1cc(-c2cccc(F)c2)sc1C(=O)N[C@H]1CCCNC1 [AZD7762] (first compound 0.01 µM, partner dose 0.02 µM)	104	97.8	105	119	104	108	111	111	131	79.1	87.3	87.4	86.9	90	61.1	91.3
CC(C)(C)c1cnc(CSc2cnc(NC(=O)C3CCNCC3)s2)o1 + COc1cc2c(Oc3ccc4[nH]c(C)cc4c3F)ncnc2cc1OCCCN1CCCC1 [cediranib] (first compound 0.01 µM, partner dose 0.4 µM)	102	100	95.7	113	89.1	95	107	90.8	76.5	83.9	95.4	87.3	89.7	99.7	99.8	127
NC(=O)c1ccc(N(C(N)=O)c2c(F)cccc2F)nc1-c1ccc(F)cc1F + CC1(C)NC(=O)N(c2ccc([N+](=O)[O-])c(C(F)(F)F)c2)C1=O [nilutamide] (first compound 0.4 µM, partner dose 1 µM)	116	104	97	109	100	94.6	105	113	105	98.7	120	106	102	70.7	111	94.1
NC(=O)c1ccc(N(C(N)=O)c2c(F)cccc2F)nc1-c1ccc(F)cc1F + C=CCn1c(=O)c2cnc(Nc3ccc(N4CCN(C)CC4)cc3)nc2n1-c1cccc(C(C)(C)O)n1 [MK1775] (first compound 0.4 µM, partner dose 0.02 µM)	106	105	79	70.6	86.2	92.2	101	81.1	77.7	81.4	86	84.3	77	89.8	57.2	78.1
NC(=O)c1ccc(N(C(N)=O)c2c(F)cccc2F)nc1-c1ccc(F)cc1F + O=C(O)C(=O)Nc1sc2c(c1C(=O)O)CCNC2 [TCS401] (first compound 0.4 µM, partner dose 1.66667 µM)	111	105	95.1	102	83.8	96.7	82.7	109	94.4	104	101	96.5	84.8	105	98.7	98
NC(=O)c1ccc(N(C(N)=O)c2c(F)cccc2F)nc1-c1ccc(F)cc1F + CCN(CC)CCCCNc1ncc2cc(-c3cc(OC)cc(OC)c3)c(NC(=O)NC(C)(C)C)nc2n1 [PD173074] (first compound 0.4 µM, partner dose 0.1 µM)	105	95.4	95.6	113	101	110	106	110	92.8	111	106	107	90.9	108	138	97.4
NC(=O)c1ccc(N(C(N)=O)c2c(F)cccc2F)nc1-c1ccc(F)cc1F + OCCn1cc(-c2cnc3nnn(Cc4ccc5ncccc5c4)c3n2)cn1 [PF04217903] (first compound 0.4 µM, partner dose 1 µM)	111	99.8	108	99.9	97.7	110	113	105	96.4	101	100	100	104	83.4	91.7	118
NC(=O)c1ccc(N(C(N)=O)c2c(F)cccc2F)nc1-c1ccc(F)cc1F + Cn1cncc1[C@@](N)(c1ccc(Cl)cc1)c1ccc2c(c1)c(-c1cccc(Cl)c1)cc(=O)n2C [tipifarnib] (first compound 0.4 µM, partner dose 0.01 µM)	103	93.2	98.2	99.1	81	89.2	81.7	105	68.3	73.3	76.7	83.5	90.5	85.7	93.6	91.9
NC(=O)c1ccc(N(C(N)=O)c2c(F)cccc2F)nc1-c1ccc(F)cc1F + CCCCCCCCCCCC1=C(O)C(=O)C=C(O)C1=O [Embelin] (first compound 0.4 µM, partner dose 1.2 µM)	108	118	98.3	124	85.3	101	82.4	101	76.1	99.3	109	94.8	105	89.4	94.8	71.8
CCCCCCCCc1ccc(CCC(N)(CO)CO)cc1 [fingolimod] + COc1cc2c(Oc3ccc4[nH]c(C)cc4c3F)ncnc2cc1OCCCN1CCCC1 [cediranib] (first compound 2 µM, partner dose 0.4 µM)	98	106	85	95.6	92.6	87.3	90.7	90	86.6	71.9	93.1	83	80.8	94.4	117	109
CC(C)(C)c1cnc(CSc2cnc(NC(=O)C3CCNCC3)s2)o1 + Cn1cncc1[C@@](N)(c1ccc(Cl)cc1)c1ccc2c(c1)c(-c1cccc(Cl)c1)cc(=O)n2C [tipifarnib] (first compound 0.01 µM, partner dose 0.01 µM)	93.5	84.5	62.4	80.3	83.3	94.6	88	103	69.4	61.4	88.5	73	104	85.7	82.1	103
CCCCCCCCc1ccc(CCC(N)(CO)CO)cc1 [fingolimod] + Oc1cc(-c2nc(-c3ccccc3)[nH]c2-c2ccncc2)ccc1Cl [L779450] (first compound 2 µM, partner dose 0.2 µM)	68	96.4	58.4	84.7	77.5	108	85.6	95.7	85.2	71.6	80.2	88.2	82.7	70.1	78.7	88.2
CCCCCCCCc1ccc(CCC(N)(CO)CO)cc1 [fingolimod] + NCC(=O)Nc1ccc(-n2nc(C(F)(F)F)cc2-c2ccc3c(ccc4ccccc43)c2)cc1 [OSU03012] (first compound 2 µM, partner dose 1 µM)	83	49.4	86.9	99.9	72	56.4	32.9	76.6	81.5	72.5	72.8	71.5	69.7	16.9	99	60.9
CC(C)(C)c1cnc(CSc2cnc(NC(=O)C3CCNCC3)s2)o1 + Cc1cc(N2CCOCC2)cc2[nH]c(-c3c(NC[C@@H](O)c4cccc(Cl)c4)cc[nH]c3=O)nc12 [BMS536924] (first compound 0.01 µM, partner dose 0.2 µM)	103	93.9	95.5	103	114	90.7	81.6	98.8	134	85.5	108	97.3	72.6	111	108	88.9
CCCCCCCCc1ccc(CCC(N)(CO)CO)cc1 [fingolimod] + CCN(CC)CCCCNc1ncc2cc(-c3cc(OC)cc(OC)c3)c(NC(=O)NC(C)(C)C)nc2n1 [PD173074] (first compound 2 µM, partner dose 0.1 µM)	98.2	100	95.8	79.4	76.3	92.5	85.5	97.1	109	87.4	103	101	90.5	65.2	92.4	158
CCCCCCCCc1ccc(CCC(N)(CO)CO)cc1 [fingolimod] + CO[C@@H]1[C@H](N(C)C(=O)c2ccccc2)C[C@H]2O[C@]1(C)n1c3ccccc3c3c4c(c5c6ccccc6n2c5c31)C(=O)NC4 [Midostaurin] (first compound 2 µM, partner dose 0.08 µM)	96.3	81.5	65.7	92.4	102	77.8	90.9	82.4	74.2	87.9	80.1	66	69	81.8	87.3	74.5
Cc1ccc(NC(=O)c2cccc(N(C)C)c2)cc1NC(=O)c1ccc(O)cc1 + CO[C@@H]1[C@H](N(C)C(=O)c2ccccc2)C[C@H]2O[C@]1(C)n1c3ccccc3c3c4c(c5c6ccccc6n2c5c31)C(=O)NC4 [Midostaurin] (first compound 2 µM, partner dose 0.08 µM)	71.7	78.6	82.7	87.5	105	89.1	92.4	81.7	68.5	82.8	80.6	70.6	87.1	109	70.6	89
CCCCCCCCc1ccc(CCC(N)(CO)CO)cc1 [fingolimod] + C=CCn1c(=O)c2cnc(Nc3ccc(N4CCN(C)CC4)cc3)nc2n1-c1cccc(C(C)(C)O)n1 [MK1775] (first compound 2 µM, partner dose 0.02 µM)	98.2	90.8	73.5	82.4	91.5	80	95.3	85.6	82.6	69.7	95.4	83.2	69.8	81.6	92.7	115
NC(=O)c1ccc(N(C(N)=O)c2c(F)cccc2F)nc1-c1ccc(F)cc1F + COc1cc(Nc2ncc(F)c(Nc3ccc4c(n3)NC(=O)C(C)(C)O4)n2)cc(OC)c1OC [Tamatinib] (first compound 0.4 µM, partner dose 0.4 µM)	98.3	90.4	78.4	115	66.2	104	107	84.9	64	76.1	88.6	81.7	73.8	107	99.8	85.3
